Measurements published in US20220023439A1, “ACTIVATABLE ANTI-CD166 ANTIBODIES AND METHODS OF USE THEREOF” (priority 2018, published 2022).

Assay: Phase 1/2 study in human subjects: adverse events, DLT and MTD (NCI CTCAE v4.03)
Type: in vivo
Conditions: for Subjects with Infusion Reactions Grade 1-2 / Subjects with Infusion Reactions Grade 3-4 / Subjects with Ocular Toxicities Grade 1-2 / Subjects with Ocular Toxicities Grade 3-4 / Subjects with Treatment-Related Adverse Events Grade 1-2 / Subjects with Treatment-Related Adverse Events Grade 3-4: Table 10

B1: Combination 55 (conjugate)
heavy: QITLKESGPTLVKPTQTLTLTCTFSGFSLSTYGMGVGWIRQPPGKALEWLANIWWSEDKHYSPSLKSRLTITKDTSKNQVVLTITNVDPVDTATYYCVQIDYGNDYAFTYWGQGTLVTVSS[skipping human IgG1 constant region]
light: QGQSGQGLCHPAVLSAWESCSSGGGSSGGSAVGLLAPPGGLSGRSDNHGGSDIVMTQSPLSLPVTPGEPASISCRSSKSLLHSNGITYLYWYLQKPGQSPQLLIYQMSNLASGVPDRFSGSGSGTDFTLKISRVEAEDVGVYYCAQNLELPYTFGQGTKLEIKRTVAAPSVFIFPPSDEQLKSGTASVVCLLNNFYPREAKVQWKVDNALQSGNSQESVTEQDSKDSTYSLSSTLTLSKADYEKHKVYACEVTHQGLSSPVTKSFNRGEC
modifications: DM4 via SPDB linker
- Subjects with Infusion Reactions Grade 1-2 (0.25 mg/kg, n=1): 0
- Subjects with Infusion Reactions Grade 3-4 (0.25 mg/kg, n=1): 0
- Subjects with Ocular Toxicities Grade 1-2 (0.25 mg/kg, n=1): 0
- Subjects with Ocular Toxicities Grade 3-4 (0.25 mg/kg, n=1): 0
- Subjects with Treatment-Related Adverse Events Grade 1-2 (0.25 mg/kg, n=1): 0
- Subjects with Treatment-Related Adverse Events Grade 3-4 (0.25 mg/kg, n=1): 0
- Subjects with Infusion Reactions Grade 1-2 (0.5 mg/kg, n=3): 0
- Subjects with Infusion Reactions Grade 3-4 (0.5 mg/kg, n=3): 0
- Subjects with Ocular Toxicities Grade 1-2 (0.5 mg/kg, n=3): 0
- Subjects with Ocular Toxicities Grade 3-4 (0.5 mg/kg, n=3): 0
- Subjects with Treatment-Related Adverse Events Grade 1-2 (0.5 mg/kg, n=3): 1
- Subjects with Treatment-Related Adverse Events Grade 3-4 (0.5 mg/kg, n=3): 0
- Subjects with Infusion Reactions Grade 1-2 (1 mg/kg, n=3): 1
- Subjects with Infusion Reactions Grade 3-4 (1 mg/kg, n=3): 0
- Subjects with Ocular Toxicities Grade 1-2 (1 mg/kg, n=3): 0
- Subjects with Ocular Toxicities Grade 3-4 (1 mg/kg, n=3): 0
- Subjects with Treatment-Related Adverse Events Grade 1-2 (1 mg/kg, n=3): 2
- Subjects with Treatment-Related Adverse Events Grade 3-4 (1 mg/kg, n=3): 0
- Subjects with Infusion Reactions Grade 1-2 (2 mg/kg, n=3): 1
- Subjects with Infusion Reactions Grade 3-4 (2 mg/kg, n=3): 0
- Subjects with Ocular Toxicities Grade 1-2 (2 mg/kg, n=3): 0
- Subjects with Ocular Toxicities Grade 3-4 (2 mg/kg, n=3): 0
- Subjects with Treatment-Related Adverse Events Grade 1-2 (2 mg/kg, n=3): 3
- Subjects with Treatment-Related Adverse Events Grade 3-4 (2 mg/kg, n=3): 0
- Subjects with Infusion Reactions Grade 1-2 (4 mg/kg, n=10): 1
- Subjects with Infusion Reactions Grade 3-4 (4 mg/kg, n=10): 0
- Subjects with Ocular Toxicities Grade 1-2 (4 mg/kg, n=10): 2
- Subjects with Ocular Toxicities Grade 3-4 (4 mg/kg, n=10): 0
- Subjects with Treatment-Related Adverse Events Grade 1-2 (4 mg/kg, n=10): 7
- Subjects with Treatment-Related Adverse Events Grade 3-4 (4 mg/kg, n=10): 1
- Subjects with Infusion Reactions Grade 1-2 (5 mg/kg, n=9): 2
- Subjects with Infusion Reactions Grade 3-4 (5 mg/kg, n=9): 0
- Subjects with Ocular Toxicities Grade 1-2 (5 mg/kg, n=9): 5
- Subjects with Ocular Toxicities Grade 3-4 (5 mg/kg, n=9): 1
- Subjects with Treatment-Related Adverse Events Grade 1-2 (5 mg/kg, n=9): 6
- Subjects with Treatment-Related Adverse Events Grade 3-4 (5 mg/kg, n=9): 3
- Subjects with Infusion Reactions Grade 1-2 (6 mg/kg, n=9): 3
- Subjects with Infusion Reactions Grade 3-4 (6 mg/kg, n=9): 0
- Subjects with Ocular Toxicities Grade 1-2 (6 mg/kg, n=9): 2
- Subjects with Ocular Toxicities Grade 3-4 (6 mg/kg, n=9): 0
- Subjects with Treatment-Related Adverse Events Grade 1-2 (6 mg/kg, n=9): 7
- Subjects with Treatment-Related Adverse Events Grade 3-4 (6 mg/kg, n=9): 2
- Subjects with Infusion Reactions Grade 1-2 (7 mg/kg, n=9): 3
- Subjects with Infusion Reactions Grade 3-4 (7 mg/kg, n=9): 0
- Subjects with Ocular Toxicities Grade 1-2 (7 mg/kg, n=9): 3
- Subjects with Ocular Toxicities Grade 3-4 (7 mg/kg, n=9): 0
- Subjects with Treatment-Related Adverse Events Grade 1-2 (7 mg/kg, n=9): 6
- Subjects with Treatment-Related Adverse Events Grade 3-4 (7 mg/kg, n=9): 2
- Subjects with Infusion Reactions Grade 1-2 (8 mg/kg, n=12): 2
- Subjects with Infusion Reactions Grade 3-4 (8 mg/kg, n=12): 1
- Subjects with Ocular Toxicities Grade 1-2 (8 mg/kg, n=12): 6
- Subjects with Ocular Toxicities Grade 3-4 (8 mg/kg, n=12): 2
- Subjects with Treatment-Related Adverse Events Grade 1-2 (8 mg/kg, n=12): 6
- Subjects with Treatment-Related Adverse Events Grade 3-4 (8 mg/kg, n=12): 5
- Subjects with Infusion Reactions Grade 1-2 (9 mg/kg, n=7): 0
- Subjects with Infusion Reactions Grade 3-4 (9 mg/kg, n=7): 0
- Subjects with Ocular Toxicities Grade 1-2 (9 mg/kg, n=7): 1
- Subjects with Ocular Toxicities Grade 3-4 (9 mg/kg, n=7): 2
- Subjects with Treatment-Related Adverse Events Grade 1-2 (9 mg/kg, n=7): 3
- Subjects with Treatment-Related Adverse Events Grade 3-4 (9 mg/kg, n=7): 2
- Subjects with Infusion Reactions Grade 1-2 (10 mg/kg, n=5): 0
- Subjects with Infusion Reactions Grade 3-4 (10 mg/kg, n=5): 0
- Subjects with Ocular Toxicities Grade 1-2 (10 mg/kg, n=5): 1
- Subjects with Ocular Toxicities Grade 3-4 (10 mg/kg, n=5): 1
- Subjects with Treatment-Related Adverse Events Grade 1-2 (10 mg/kg, n=5): 1
- Subjects with Treatment-Related Adverse Events Grade 3-4 (10 mg/kg, n=5): 2
- Grade 3-4 TRAEs, Eye Disorders (% of subjects observed) (10 mg/kg, n=8, Table 11A): (12.5%)
- Grade 3-4 TRAEs, Eye Disorders (no. of subjects) (10 mg/kg, n=8, Table 11A): 1
- Grade 3-4 TRAEs, Gastrointestinal Disorders (% of subjects observed) (10 mg/kg, n=8, Table 11A): (12.5%)
- Grade 3-4 TRAEs, Gastrointestinal Disorders (no. of subjects) (10 mg/kg, n=8, Table 11A): 1
- Grade 3-4 TRAEs, Liver Function Tests (% of subjects observed) (10 mg/kg, n=8, Table 11A): (37.5%)
- Grade 3-4 TRAEs, Liver Function Tests (no. of subjects) (10 mg/kg, n=8, Table 11A): 3
- Grade 3-4 TRAEs, Metabolism & Nutrition Disorders (no. of subjects) (10 mg/kg, n=8, Table 11A): 0
- Grade 3-4 TRAEs, Nervous System Disorders (no. of subjects) (10 mg/kg, n=8, Table 11A): 0
- Total Grade 3-4 TRAEs (% of subjects observed) (10 mg/kg, n=8, Table 11A): (50%)
- Total Grade 3-4 TRAEs (no. of subjects) (10 mg/kg, n=8, Table 11A): 4
- Grade 3-4 TRAE Anemia (no. of subjects) (10 mg/kg, n=8, Table 11B): 0
- Grade 3-4 TRAE Fatigue (% of subjects observed) (10 mg/kg, n=8, Table 11B): (13%)
- Grade 3-4 TRAE Fatigue (no. of subjects) (10 mg/kg, n=8, Table 11B): 1
- Grade 3-4 TRAE HN, hyponatremia (no. of subjects) (10 mg/kg, n=8, Table 11B): 0
- Grade 3-4 TRAE Increased ALT (% of subjects observed) (10 mg/kg, n=8, Table 11B): (25%)
- Grade 3-4 TRAE Increased ALT (no. of subjects) (10 mg/kg, n=8, Table 11B): 2
- Grade 3-4 TRAE Increased AST (% of subjects observed) (10 mg/kg, n=8, Table 11B): (38%)
- Grade 3-4 TRAE Increased AST (no. of subjects) (10 mg/kg, n=8, Table 11B): 3
- Grade 3-4 TRAE Keratitis (% of subjects observed) (10 mg/kg, n=8, Table 11B): (13%)
- Grade 3-4 TRAE Keratitis (no. of subjects) (10 mg/kg, n=8, Table 11B): 1
- Grade 3-4 TRAE Nausea (% of subjects observed) (10 mg/kg, n=8, Table 11B): (13%)
- Grade 3-4 TRAE Nausea (no. of subjects) (10 mg/kg, n=8, Table 11B): 1
- Grade 3-4 TRAE PSN, Peripheral sensory neuropathy (no. of subjects) (10 mg/kg, n=8, Table 11B): 0
- Grade 3-4 TRAE Vomiting (no. of subjects) (10 mg/kg, n=8, Table 11B): 0
- Grade 3-4 TRAEs, Eye Disorders (% of subjects observed) (4-5 mg/kg, n=19, Table 11A): (5.3%)
- Grade 3-4 TRAEs, Eye Disorders (no. of subjects) (4-5 mg/kg, n=19, Table 11A): 1
- Grade 3-4 TRAEs, Gastrointestinal Disorders (no. of subjects) (4-5 mg/kg, n=19, Table 11A): 0
- Grade 3-4 TRAEs, Liver Function Tests (no. of subjects) (4-5 mg/kg, n=19, Table 11A): 0
- Grade 3-4 TRAEs, Metabolism & Nutrition Disorders (no. of subjects) (4-5 mg/kg, n=19, Table 11A): 0
- Grade 3-4 TRAEs, Nervous System Disorders (% of subjects observed) (4-5 mg/kg, n=19, Table 11A): (5.3%)
- Grade 3-4 TRAEs, Nervous System Disorders (no. of subjects) (4-5 mg/kg, n=19, Table 11A): 1
- Total Grade 3-4 TRAEs (% of subjects observed) (4-5 mg/kg, n=19, Table 11A): (21.1%)
- Total Grade 3-4 TRAEs (no. of subjects) (4-5 mg/kg, n=19, Table 11A): 4
- Grade 3-4 TRAE Anemia (% of subjects observed) (4-5 mg/kg, n=19, Table 11B): (5%)
- Grade 3-4 TRAE Anemia (no. of subjects) (4-5 mg/kg, n=19, Table 11B): 1
- Grade 3-4 TRAE Fatigue (% of subjects observed) (4-5 mg/kg, n=19, Table 11B): (5%)
- Grade 3-4 TRAE Fatigue (no. of subjects) (4-5 mg/kg, n=19, Table 11B): 1
- Grade 3-4 TRAE HN, hyponatremia (no. of subjects) (4-5 mg/kg, n=19, Table 11B): 0
- Grade 3-4 TRAE Increased ALT (no. of subjects) (4-5 mg/kg, n=19, Table 11B): 0
- Grade 3-4 TRAE Increased AST (no. of subjects) (4-5 mg/kg, n=19, Table 11B): 0
- Grade 3-4 TRAE Keratitis (% of subjects observed) (4-5 mg/kg, n=19, Table 11B): (5%)
- Grade 3-4 TRAE Keratitis (no. of subjects) (4-5 mg/kg, n=19, Table 11B): 1
- Grade 3-4 TRAE Nausea (no. of subjects) (4-5 mg/kg, n=19, Table 11B): 0
- Grade 3-4 TRAE PSN, Peripheral sensory neuropathy (% of subjects observed) (4-5 mg/kg, n=19, Table 11B): (5%)
- Grade 3-4 TRAE PSN, Peripheral sensory neuropathy (no. of subjects) (4-5 mg/kg, n=19, Table 11B): 1
- Grade 3-4 TRAE Vomiting (no. of subjects) (4-5 mg/kg, n=19, Table 11B): 0
- Grade 3-4 TRAEs, Eye Disorders (no. of subjects) (6-7 mg/kg, n=18, Table 11A): 0
- Grade 3-4 TRAEs, Gastrointestinal Disorders (% of subjects observed) (6-7 mg/kg, n=18, Table 11A): (5.6%)
- Grade 3-4 TRAEs, Gastrointestinal Disorders (no. of subjects) (6-7 mg/kg, n=18, Table 11A): 1
- Grade 3-4 TRAEs, Liver Function Tests (no. of subjects) (6-7 mg/kg, n=18, Table 11A): 0
- Grade 3-4 TRAEs, Metabolism & Nutrition Disorders (% of subjects observed) (6-7 mg/kg, n=18, Table 11A): (11.1%)
- Grade 3-4 TRAEs, Metabolism & Nutrition Disorders (no. of subjects) (6-7 mg/kg, n=18, Table 11A): 2
